In all, about 310,000 compounds went through this assay and about 14,000 (4.5%) showed an effect of 50% or more. The effect is printed as a negative number. The list shows a part of the results.
Each compound was assayed against human ether-à-go-go-related gene (hERG) potassium channel (human, UniProt Q12809) (assay: primary screen, population patch clamp on CHO cells stably expressing hERG).
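Also: peak tail current of the secondary pulse compared with the same well before compound.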

human ether-à-go-go-related gene (hERG) potassium channel, sequence (Q12809 whole entry, looked up): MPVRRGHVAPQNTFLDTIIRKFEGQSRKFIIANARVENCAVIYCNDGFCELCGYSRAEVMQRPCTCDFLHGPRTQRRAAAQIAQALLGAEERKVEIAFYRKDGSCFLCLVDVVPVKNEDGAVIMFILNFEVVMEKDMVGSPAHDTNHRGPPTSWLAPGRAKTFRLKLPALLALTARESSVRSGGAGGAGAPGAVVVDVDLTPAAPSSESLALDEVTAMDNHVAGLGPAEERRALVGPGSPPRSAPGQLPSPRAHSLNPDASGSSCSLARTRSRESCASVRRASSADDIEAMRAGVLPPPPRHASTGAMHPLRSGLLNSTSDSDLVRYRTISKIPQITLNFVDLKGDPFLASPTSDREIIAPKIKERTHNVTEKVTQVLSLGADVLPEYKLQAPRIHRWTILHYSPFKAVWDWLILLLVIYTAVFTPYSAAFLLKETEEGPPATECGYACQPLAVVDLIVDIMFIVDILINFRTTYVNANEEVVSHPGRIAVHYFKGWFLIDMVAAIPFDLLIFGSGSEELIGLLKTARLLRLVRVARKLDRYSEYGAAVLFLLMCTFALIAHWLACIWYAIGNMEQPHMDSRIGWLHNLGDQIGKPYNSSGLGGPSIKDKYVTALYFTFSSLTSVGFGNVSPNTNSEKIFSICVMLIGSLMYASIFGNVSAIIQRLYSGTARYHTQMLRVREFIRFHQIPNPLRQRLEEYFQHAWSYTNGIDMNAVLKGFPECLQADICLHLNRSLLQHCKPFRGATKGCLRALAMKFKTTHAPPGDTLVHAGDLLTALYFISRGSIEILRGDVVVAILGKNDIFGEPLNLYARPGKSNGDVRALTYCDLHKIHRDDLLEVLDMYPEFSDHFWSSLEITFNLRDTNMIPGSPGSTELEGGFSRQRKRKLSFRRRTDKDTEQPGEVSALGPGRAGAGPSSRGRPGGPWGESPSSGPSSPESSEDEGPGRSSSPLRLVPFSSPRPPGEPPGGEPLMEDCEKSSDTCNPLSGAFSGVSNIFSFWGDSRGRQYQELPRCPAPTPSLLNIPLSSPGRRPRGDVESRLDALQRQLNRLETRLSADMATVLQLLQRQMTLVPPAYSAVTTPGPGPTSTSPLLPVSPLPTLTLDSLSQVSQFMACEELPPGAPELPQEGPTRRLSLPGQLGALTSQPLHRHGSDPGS

| Compound | hERG current change (%, negative = inhibition) at 10uM |
| --- | --- |
| COc1ccc(NC(=S)NCc2ccco2)cc1 | 9.23% |
| O=C(NC(NC(=O)c1ccccc1)c1ccccc1)c1ccccc1 | -3.65% |
| O=c1[nH]c(CSc2nc3ccccc3o2)nc2c1cnn2-c1ccccc1 | -9.37% |
| Cc1ccc(CNC(=O)C2CCCN2C(=O)Nc2ccccc2)cc1 (stereo not drawn) | -8.61% |
| CSc1ncccc1C(=O)Nc1ccc(S(=O)(=O)N2CCCC2)cc1 | -16.6% |
| Cc1cccc(NC(=O)Cn2c(C)c(C#N)c3ccccc32)c1C | 5.11% |
| CCOc1ccc2c(c1)nc(NCCCO)n2Cc1ccccc1 | -20.3% |
| CC1=C(C(=O)OCc2ccccc2)C(c2ccc([N+](=O)[O-])cc2)NC(=O)N1CCCC(=O)O (stereo not drawn) | 13% |
| Cc1c(Cl)ccc2c(C(=O)NC(C)c3ccncc3)cc(-c3ccncc3)nc12 (stereo not drawn) | -59.3% |
| CCC(C)NC(=O)CN(c1ccc(OC)cc1)S(=O)(=O)c1ccccc1 (stereo not drawn) | 8.58% |
| O=C1CCCCCCCN1Cc1ccccc1 | 10.6% |
| Cc1nn(C)c(C)c1S(=O)(=O)N1CCCC(C(=O)NCC2COc3ccccc3O2)C1 (stereo not drawn) | -14.9% |
| COc1cc2c(c(OC)c1OC)-c1c(cc3c(c1OC)OCO3)C[C@H](C)[C@@](C)(O)C2 | 28.4% |
| C=CCn1cc(C(=O)NCC2CCCO2)c(=O)c2cc(S(=O)(=O)N3CCCCCC3)ccc21 (stereo not drawn) | -48.1% |
| Cc1cc(C)nc(NS(=O)(=O)c2ccc(CC(C)C)cc2)c1 | -25.3% |
| Cc1nn(S(=O)(=O)c2cccc([N+](=O)[O-])c2)c(C)c1Br | 10.7% |
| CCOC(=O)C1(CCOc2ccccc2)CCN(Cc2ccncc2)CC1 | -52% |
| Cc1ccc(-c2csc3ncnc(N4CCc5ccccc5C4)c23)cc1 | 10.8% |
| Cc1csc(NC(=O)CSc2nnc(-c3ccncc3)o2)n1 | -1.96% |
| CC(C)NCc1nnc(-c2ccccc2Cl)o1 | 21% |
| CCCNC(=O)COc1coc(CN2CCN(c3ccccc3OC)CC2)cc1=O | -14.8% |
| CCOc1ccc2c(C)c(C(=O)O)oc2c1OCC | 16.5% |
| COc1ccc(NS(=O)(=O)c2cccc(C(=O)N(C)Cc3ccc(SC)cc3)c2)cc1 | -9.93% |

| Compound | hERG current change (%, negative = inhibition) at 10uM |
| --- | --- |
| O=c1c(Cc2c(F)cccc2Cl)c(O)ccn1CCCN1CCOCC1 | -15.6% |
| O=C(O)C(NS(=O)(=O)c1ccccc1)C(O)c1ccccc1 (stereo not drawn) | 17% |
| COCCCN=Cc1c(O)[nH]c(=S)[nH]c1=O | 0.728% |
| OC[C@@H](O)[C@@H](O)[C@H](O)[C@H](O)CO | 9.43% |
| C=CCc1cccc2cc(C(=O)OCC(=O)c3ccccc3)c(=O)oc12 | -12.6% |
| Cc1ccc2ccccc2c1NC(=O)Cn1nnc(-c2cccnc2)n1 | -2.76% |
| Cc1nc(C(=O)O)nn1-c1cc(Cl)ccc1Cl | 16.1% |
| Cn1cc([N+](=O)[O-])c(C(=O)N/N=C/c2ccc3c(c2)OCO3)n1 | -2.68% |
| Cc1ccc(C(=O)Nc2nc(C)c(C(=O)N(C)C)s2)o1 | 9.62% |
| Cc1cc(Oc2ccc(N)cn2)ccc1Cl | 8.53% |
| CCC(c1nnnn1Cc1ccccc1)N1CCN(c2ccccc2)CC1 (stereo not drawn) | -8.7% |
| Cn1cc([N+](=O)[O-])c(C(=O)NCc2ccco2)n1 | 50.5% |
| COC(=O)c1[nH]c2ccc(C)cc2c1NC(=O)Nc1ccc(OC)cc1 | -15% |
| O=C(CCCC(=O)OCC(F)(F)C(F)F)Nc1nccs1 | 8.18% |
| CC1CN(C(=O)COC(=O)c2cc(Cl)ccc2[N+](=O)[O-])CC(C)O1 (stereo not drawn) | 4.34% |
| CC(/C=C/C=C/c1ccccc1)=N/NC(=O)CNc1ccc(C)cc1 | 10% |
| CSc1ccccc1NC(=O)C1=COCCO1 | 13.2% |
| Cc1cc(/C=C(/C#N)C(=O)O)c(C)n1CCC(C)C | 4.68% |
| CCN(C(=O)CSc1nncn1-c1ccccc1)C1CCS(=O)(=O)C1 (stereo not drawn) | 24.6% |
| CCN(CC)S(=O)(=O)N1CCC(C(=O)NC2CCCC2)CC1 | -6.03% |
| CCCn1c(N)c(C(=O)CSc2n[nH]c(-c3ccc(C)cc3)n2)c(=O)[nH]c1=O | 22.2% |
| COc1nccnc1NS(=O)(=O)c1ccc(NC(=S)NC(=O)/C=C/c2ccc(F)cc2)cc1 | -16.7% |
| C[n+]1cccc(C(=O)NCC2CCCO2)c1.[I-] (stereo not drawn) | 18.1% |

| Compound | hERG current change (%, negative = inhibition) at 10uM |
| --- | --- |
| CN(C)CCCNS(=O)(=O)c1ccc(NC2CCCCCC2)c([N+](=O)[O-])c1 | -21.1% |
| O=C(Nc1cccnc1)c1cc2nc(C3CC3)cc(C(F)(F)F)n2n1 | -14% |
| COc1cccc(NC(=O)CCNC(=O)C2CCN(S(=O)(=O)c3ccc(F)cc3)CC2)c1 | 13% |
| O=C(CSC1=NS(=O)(=O)c2cc(Cl)ccc2N1)Nc1cccc(F)c1 | -1.16% |
| CCOC(=O)c1c(N)n[nH]c1-c1ccccc1 | 10.3% |
| COc1cccc(-c2cccc(NC(=O)C3CCN(C4CCOCC4)CC3)c2)c1 | -42% |
| Cc1ccc(CNC(=O)Nc2ccc(Cl)cc2)cc1 | 19.7% |
| CC(C)CCNC(=O)/C=C/c1ccc(Br)cc1 | 0.187% |
| Cc1cccc(Nc2nc(N)c([N+](=O)[O-])c(NCc3ccco3)n2)c1 | -6.06% |
| CCOc1ccc(NC(=O)COn2nnc3ccc(S(=O)(=O)N4CCOCC4)cc32)cc1 | -21.7% |
| CC(Sc1n[nH]c(N)n1)C(=O)Nc1cccc(S(=O)(=O)N2CCOCC2)c1 (stereo not drawn) | 16% |
| CC(C)C(=O)O/N=C(\N)c1ccccn1 | 0.837% |
| CCN(CC)S(=O)(=O)c1cccc(-c2nnc(SC(C)C(N)=O)n2CCc2ccccc2)c1 (stereo not drawn) | -34.1% |
| COc1cc2c(cc1C1NC(=S)NC(C)=C1C(=O)N(C)C)CCCC2 (stereo not drawn) | -7.56% |
| CC(C)[C@H](NC(=O)c1ccco1)C(=O)OCc1cc(=O)n2c(n1)sc1ccccc12 | 12.3% |
| COc1ccc(N(C)C(=O)c2cn(CC(C)C)c(=O)c3cc(OC)c(OC)cc23)c(OC)c1 | 8% |
| Cc1c(O)ccc(/C(Cc2ccc3ccccc3n2)=N\O)c1O | -1.53% |
| O=C(O)COc1ccc(-c2nnn(CC(=O)O)n2)cc1 | 6.17% |
| CC1CCCCN1S(=O)(=O)c1ccc([N+](=O)[O-])cc1 (stereo not drawn) | -4.19% |
| Fc1cccc(CSc2nnc3ccc(-c4ccncc4)nn23)c1 | -60.4% |
| O=C(Nc1ccc(S(=O)(=O)NC2CCCCC2)cc1)c1ccco1 | 2.08% |
| O=C1CC(c2ccc(O)cc2)Oc2cc(O)cc(O)c21 (stereo not drawn) | -11.2% |
| COc1cc2cc(CN(CCN3CCCC3)C(=O)Nc3ccccc3Cl)c(=O)[nH]c2cc1OC | -6.16% |

| Compound | hERG current change (%, negative = inhibition) at 10uM |
| --- | --- |
| CCCCS(=O)(=O)C(=C1Nc2ccccc2N1)S(=O)(=O)CCCC | -6.74% |
| O=C(Nc1ccc(C(F)(F)F)cc1)C1CC(=O)N(c2ccc3c(c2)OCCO3)C1 (stereo not drawn) | 2.35% |
| Cc1ccc(C)c(Nc2ccc3nonc3c2[N+](=O)[O-])c1 | 3.07% |
| CC(C)N1CCN(Cc2coc3ccccc3c2=O)CC1CCO (stereo not drawn) | 7.7% |
| C[C@H](CCC(=O)NCC(=O)O)[C@H]1CC[C@H]2C3[C@H](O)C[C@@H]4C[C@H](O)CC[C@]4(C)[C@H]3C[C@H](O)[C@]12C (stereo partly drawn) | 0.253% |
| CC1(C)Oc2ccc(C(=O)NC3CCCC3)cc2N(CC(=O)N2CCOCC2)C1=O | -5.79% |
| CNc1oc(/C=C/c2ccccc2)nc1C#N | 8.33% |
| CCCCOc1ccc(C(=O)O)cc1 | 6.53% |
| Cc1ccsc1C(=O)OCC(=O)Nc1c(Cl)cccc1C(F)(F)F | -2.72% |
| CC(=O)N1Cc2ccccc2CC1C(=O)NCc1ccccc1F (stereo not drawn) | -7.43% |
| O=C(Nc1ccc2c(c1)nc1n2CCOC1)c1ccco1 | 9.79% |
| O=C(CCS(=O)(=O)c1cccs1)N1CCCC1 | 3.18% |
| COC(=O)Cn1c(=O)c(=O)n(CC(=O)OC)c2ccccc21 | 22.7% |
| CCSc1ccccc1C(=O)Nc1nncs1 | 11.6% |
| Cc1ccccc1CN1CCN(S(=O)(=O)c2cccc3nsnc23)CC1 | -4.52% |
| O=C(CCCCCNC(=O)N1CCn2c1nc1ccccc12)N[C@@H](Cc1ccccc1)C(=O)O | -11.4% |
| CCS(=O)(=O)c1nc(S(=O)(=O)c2ccc(C)cc2)c(N2CC(C)CC(C)C2)s1 (stereo not drawn) | 2.19% |
| CCCCSc1nc(C)c(CC(=O)OC)c(=O)[nH]1 | 14.1% |
| COc1ccccc1NC(=S)N1CCN(C(c2ccccc2)c2ccccc2)CC1 | -1.35% |
| CC(=O)Cc1cc(O)c2ccccc2c1OC(=O)c1ccccc1 | 27.6% |
| CC(C)Cn1c(=S)[nH]c2cc(C(=O)NCc3ccccc3F)ccc2c1=O | -6.21% |

— publication PMC4336329 (PLoS ONE, 2015)
